# Assay results from PubChem BioAssay AID1346428 (National Center for Advancing Translational Sciences (NCATS), 2018).
# “And” between values parts separate entries of the source, which are not always exact repeats. Equal values may be shown once. The whole screen tested about 48,000 compounds, of which about 1,200 (2.5%) were called active. Roughly 2% stayed inconclusive and do not appear here.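 Rule for the calls: active = activation of at least 60% and not above a set upper limit (about 1 call in 100 departs from these limits); inconclusive = activation of 40% to 60%, or above that upper limit; inactive = activation under 40%.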 Some of the results follow.
# Target: Probable G-protein coupled receptor 32 (Homo sapiens) (UniProt O75388)
# Assay: qHTS for Agonists of Human Resolvin D1 Receptor DRV1; note: 0% is about no effect
# Settings: CHO-K1 GPR32 beta-arrestin PathHunter luminescence, 90 min; at 76.9 µM; active compounds read high; zero percent set by DMSO-only wells
# Procedure, shortened: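 Readings come from a cell-based beta-arrestin complementation format: CHO-K1 GPR32 stable cells (2,500/well) treated 90 min with compounds, then beta-Gal substrate added for 1 h before chemiluminescence imaging.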
# Chain of UniProt O75388 (O75388 whole entry, looked up): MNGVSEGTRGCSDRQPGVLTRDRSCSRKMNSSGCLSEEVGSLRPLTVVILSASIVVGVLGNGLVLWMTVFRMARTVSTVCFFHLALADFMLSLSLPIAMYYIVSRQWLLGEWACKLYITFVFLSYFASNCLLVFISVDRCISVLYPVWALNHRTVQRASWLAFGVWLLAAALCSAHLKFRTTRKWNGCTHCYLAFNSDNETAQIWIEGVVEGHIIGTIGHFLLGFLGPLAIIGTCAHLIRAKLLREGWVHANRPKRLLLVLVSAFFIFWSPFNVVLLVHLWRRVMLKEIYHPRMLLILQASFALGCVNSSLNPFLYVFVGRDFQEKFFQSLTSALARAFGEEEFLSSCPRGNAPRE
row,SMILES,activation
1,Cc1ccc(CNC(=O)CCCc2nnc3n(CC(C)C)c(=O)c4sccc4n23)cc1,inactive: -1.76%
2,O=C(CN1C(=O)CSc2ccc(S(=O)(=O)N3CCCC3)cc21)NCc1ccc(F)cc1Cl,inactive: -3.94%
3,O=c1c2nncn2ccn1-c1ccc(F)c(F)c1,inactive: 32.4%
4,O=C(c1cc2cc3ccc(Cl)cc3nc2o1)N1CCN(c2cccc(Cl)c2)CC1,inactive: -1.45%
5,CCN(CC)C(=O)C1CCCN(c2ncnc3c2c(-c2ccccc2)cn3-c2cccc(C)c2)C1 (stereo not drawn),inactive: -37.6%
6,Cc1cccc(NC(=O)N2CC=C(c3c[nH]c4ccccc34)CC2)c1C,inactive: -24.5%
7,CCCSc1ncnc2c1c(-c1ccccc1)cn2-c1ccccc1OC,inactive: -0.665%
8,COc1ccc(OC)c(NC(=O)CS(=O)(=O)Cc2nc(-c3ccc(C)cc3)oc2C)c1,inactive: -10.2%
9,CN1CCN2c3ccccc3Cc3ccccc3C2C1 (stereo not drawn),inactive: -12.6% and inactive: -17.5%
10,CCOc1ccc2c(c1)c(=O)c(S(=O)(=O)c1ccc(CC)cc1)cn2Cc1cccc(Cl)c1,inactive: -15.5%
11,Cc1ccc(Cl)cc1Nc1nn2c(=O)c3ccc(C(=O)NC4CCCCC4)cc3nc2s1,inactive: 6.5%
12,CCc1cccc(C)c1NC(=O)Cn1ncc2c3ccccc3n(Cc3ccccc3)c2c1=O,inactive: -10.3%
13,COc1ccc(-c2cn3nc(SCC(=O)Nc4cc(C)cc(C)c4)ccc3n2)cc1,inactive: -8.9%
14,CCOc1ccc(OCC)c(NC(=O)c2cc(-c3cccs3)nc3ccccc23)c1,inactive: 9.73%
15,CCCCOC(=O)c1ccc(Nc2nc3ccc(C(=O)c4ccccc4)cc3n3cnnc23)cc1,inactive: -6.41%
16,COc1ccc(CNC(=O)c2ccc(CS(=O)(=O)c3ccc(Br)cc3)o2)cc1,inactive: -7.86%
17,O=c1c2sccc2n(Cc2cc(=O)n3cc(Cl)ccc3n2)c(=O)n1-c1ccccc1,inactive: -14.1%
18,O=c1c(N2CCN(c3cccc(Cl)c3)CC2)csc2ccc(Cl)cc12,inactive: -53.3%
19,O=C1CCSc2ccc(S(=O)(=O)Nc3cccc(C(F)(F)F)c3)cc2N1,active: 109%
20,CCC(=O)N1CCCc2cc(S(=O)(=O)N3CCC(C(=O)Nc4ccc(C#N)cc4)CC3)ccc21,inactive: -6.24%
21,CCOC(=O)c1cc(S(=O)(=O)NCc2ccc(OC)cc2)[nH]n1,inactive: -12.3%
22,COc1ccc(OCc2ccc(-c3nc(C#N)c(NCc4cccnc4)o3)o2)cc1,inactive: 29.3%
23,CCCC(=O)Nc1ccccc1C(=O)OCc1cc(=O)n2nc(C(C)C)sc2n1,inactive: 4.47%
24,Cc1cccc2c(=O)cc(CSc3ccccc3NC(=O)C(C)(C)C)[nH]c12,inactive: -9.42%
25,CC(=O)c1cccc(NC(=O)Cn2cc(C(=O)c3cccc(Cl)c3)c(=O)c3ccc(C)nc32)c1,inactive: -15.7%
26,COc1ccc(OC)c(S(=O)(=O)N2CCN(Cc3nc4ccc(C)cc4o3)CC2)c1,inactive: -8.19%
27,CCN(C(=O)Cn1c(=O)n(Cc2ccc3c(c2)OCO3)c(=O)c2ccc(C(=O)NC3CCCCC3)cc21)c1cccc(C)c1,inactive: 36.3%

row,SMILES,activation
1,COC(=O)c1ccc(-n2c(/C=C/c3cc(OC)c(OC)c(OC)c3)nc3cc(Cl)ccc3c2=O)cc1,inactive: -16.4%
2,Cc1cc(C)cc(NC(=O)N2CCN(C(=O)c3nsc4ccccc34)CC2)c1,inactive: -8.64%
3,COc1cc(NC(=O)Cn2nnnc2-c2ccccc2F)cc(OC)c1OC,inactive: 6.69%
4,CC(=O)Nc1ccc(NC(=O)C(NS(=O)(=O)c2ccc(Br)s2)c2ccccc2)cc1 (stereo not drawn),inactive: -8.34%
5,Cc1ccc(CNC(=O)CCc2nc3cccnc3n2Cc2ccccc2)cc1,inactive: -3.92%
6,Cc1ccc(Cn2cc(S(=O)(=O)c3ccc(Cl)cc3)c(=O)c3cc4c(cc32)OCO4)cc1,inactive: 5.6%
7,COc1ccc(-c2cc3ccc(O)c(CN4CCCCC4C)c3oc2=O)cc1OC (stereo not drawn),inactive: -5.8%
8,Cc1ccc(OCCSc2nc3ccc(NC(=O)c4ccco4)cc3s2)cc1,inactive: 29.6%
9,O=C1CC(=O)Nc2cc(S(=O)(=O)Nc3ccc(F)cc3Cl)ccc2N1,inactive: -4.36%
10,CCOc1ccc2nc(N(Cc3cccnc3)C(C)=O)sc2c1,inactive: -7.07%
11,CCCc1ccc(OC(C)c2nc(-c3ccc(-n4cccc4)cc3)no2)cc1 (stereo not drawn),inactive: 18.6%
12,COCc1oc2ccc(NS(=O)(=O)c3ccc(C)cc3)cc2c1C(=O)OC,inactive: -13.4%
13,O=C(CCNS(=O)(=O)c1ccc2c(c1)CCN2C(=O)C1CC1)N1CCN(c2cccc(C(F)(F)F)c2)CC1,active: 73.7%
14,CC(=O)N1CCc2cc(S(=O)(=O)NC(Cc3ccccc3)C(=O)NCc3ccccc3Cl)ccc21 (stereo not drawn),inactive: -4.87%
15,Cc1ccc(C)c(NS(=O)(=O)c2ccc3oc(=O)c4ncn(C)c4c3c2)c1,inactive: -1.16%
16,Cc1ccc(N(C)C(=O)C2CCN(S(=O)(=O)c3cn(C)cn3)CC2)cc1,inactive: -7.35%
17,CCn1c(=O)c2cc(C(=O)NCCc3ccc(Cl)cc3)sc2c2ccccc21,inactive: -5.02%
18,CCc1nnc(SC(CC)C(=O)Nc2cc(C)ccc2C)c2cc3occc3n12 (stereo not drawn),inactive: -11.9%
19,COc1ccc(OCC(=O)NC(Cc2c[nH]c3ccccc23)C(=O)O)cc1 (stereo not drawn),inactive: 1.72%
20,COc1cc(C2c3c(oc4ccccc4c3=O)C(=O)N2Cc2ccc(C)cc2)ccc1O (stereo not drawn),inactive: -7.08%
21,CC1CCN(CCCNC(=O)CN2C(=O)CSc3ccc(S(=O)(=O)N4CCOCC4)cc32)CC1,inactive: -11.4%
22,COc1ccc(NC(=O)c2cc3c(=O)n(Cc4cccnc4)ccc3nc2C)c(OC)c1,inactive: 5.45%
23,CN(C)CCc1c[nH]c2ccc(CS(=O)(=O)N3CCCC3)cc12,inactive: -10.9%
24,Cc1ccc(NC(=O)c2c(C)oc3ncn(CC(C)C)c(=O)c23)nc1,inactive: -12.3%
25,Cc1ccc2nc3c(cc(C(=O)NCc4ccco4)c(=N)n3C(C)C)c(=O)n2c1,inactive: 1.54%
26,Cc1cccc(CN2C(=O)c3ccccc3S(=O)(=O)c3ccc(C(=O)NC4CCCCC4)cc32)c1,inactive: -1.56%
